Source: PubChem BioAssay AID651820 (National Center for Advancing Translational Sciences (NCATS), 2012)
Among all 340,000 compounds or so, about 12,000 (3.5%) were called active. The inconclusive results got no clear call from the source; some entries with a clear call stand among them for comparison. The call rests on the fitted dose curve; in most records, active means well fitted inhibition curve with a large enough effect; inconclusive means small, poorly fitted or top-dose-only effect, or another doubt; inactive means no such curve, though single readings can be large or run the other way. Potencies of inconclusive entries are left out as doubtful fits.

Assay: qHTS Assay for Inhibitors of Hepatitis C Virus (HCV)
Conditions: Huh7.5.1 HCVcc-Cre (HCVcc is cell-culture hepatitis C virus) infection, luciferase reporter, 44 h; series mostly up to 41.8 µM
In short: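 Infectious HCV cell culture screen: compound-treated cells (1,000/well, pre-plated 4 h) are infected with HCVcc-Cre at roughly 0.5 moi and grown 44 h. Infection is quantified by luciferase signal after 15 min substrate incubation at room temperature.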
Potency means the concentration at half of the fitted maximal effect; tags describe the fitted curve by direction and shape.

Compound | Potency
COc1ccc(CCN(C)c2ncnc3sccc23)cc1OC | active: 10 µM
CC(C)OP(=O)(OC(C)C)C(Nc1ccc(C(=O)O)cc1)c1ccccc1 (stereo not drawn) | inactive
CN(Cc1ccccc1)S(=O)(=O)c1ccc(Cl)c(C(=O)NCCCN2CCOCC2)c1 | inconclusive [inhibitor, single point]
COc1ccccc1N1CCN(C(=O)C(Cc2ccccc2)NC(=O)C2CCCCC2)CC1 (stereo not drawn) | inconclusive [inhibitor, partial curve]
Nc1nc(-c2sc3nc4c(cc3c2N)CCCC4)nc(N2CCOCC2)n1 | inconclusive [inhibitor, single point]
CCCNC(=O)c1cc(S(=O)(=O)N2CCc3ccccc32)cn1C | active: 8.91 µM
CC(=O)c1c(C)nc2sc3c(=N)n(N)cnc3c2c1-c1ccc(Cl)cc1 | inconclusive [inhibitor, partial curve]
COC(=O)c1ccccc1NC(=O)CNC(=O)c1ccc(OC)c(OC)c1 | inconclusive [inhibitor, single point]
CC(C)C[C@H](N)c1nnc(SCC(=O)Nc2ccc(Br)cc2)o1 | inactive
O=C(O)C(c1cccs1)C1(O)CCCCC1 (stereo not drawn) | inactive
O=S(=O)(c1ccc2c(c1)OCCO2)N1CCC(c2nc3ccc(Cl)cc3[nH]2)CC1 | inconclusive [inhibitor, single point]
Cc1cccc2nc(CSc3nc4[nH]ncc4c(=O)n3-c3ccccc3Cl)cc(=O)n12 | inconclusive [inhibitor, single point]
O=C(CCNc1ccc(F)c(Cl)c1)c1ccco1 | inconclusive [inhibitor, partial curve]
O=C(c1cccs1)N(CCN1CCCCC1)CC1CCCN(C2CCCC2)C1 (stereo not drawn) | inconclusive [inhibitor, partial curve]
Cc1csc(NC(=O)c2ccc3c(c2)OCO3)n1 | inactive
Cc1ccc(NC(=O)c2sccc2-n2cccc2)c(C)c1 | inconclusive [inhibitor, partial curve]
O=C(Oc1cccc2cccnc12)c1cccs1 | inconclusive [inhibitor, single point]
Cc1cc(C(=O)CSc2nnc(N)s2)c(C)n1Cc1ccco1 | inactive
CC(C(=O)N1c2ccccc2CCc2ccccc21)n1nnc(-c2ccc(N(C)C)cc2)n1 (stereo not drawn) | inconclusive [inhibitor, partial curve]
C/C(=N\NC(=O)CSc1nc(C)cc(C)n1)c1cccc([N+](=O)[O-])c1 | inactive
CCOc1ccc(NCc2cccn2-c2nnc(N3CCC(C(=O)NCCCN4C(C)CCCC4C)CC3)s2)cc1 (stereo not drawn) | inconclusive [inhibitor, partial curve]
CCN(CC)CCCC(C)Nc1nccc2c(Cl)cccc12 (stereo not drawn) | active: 10 µM

Compound | Potency
CCOC(=O)[C@H](CCc1ccccc1)N[C@@H](C)C(=O)N1CCC[C@H]1C(=O)O | inconclusive [inhibitor, single point]
COc1ccccc1CCC(=O)Nc1nc2ccccc2[nH]1 | inconclusive [inhibitor, single point]
COc1ccc(CNC(=O)CN(CC2CCCO2)C(=O)CNS(=O)(=O)c2ccc(F)cc2)cc1 (stereo not drawn) | inactive
O=C(Nc1nc(-c2ccco2)c(-c2ccco2)s1)c1ccco1 | inconclusive [inhibitor, single point]
CC1CCN(S(=O)(=O)c2cccc(-c3csc(-c4cccnc4)n3)c2)CC1 | inconclusive [inhibitor, single point]
COc1cc2c(=O)n(CCCC(=O)NCC3CCCO3)c(=O)n(CC(=O)c3ccc(F)cc3)c2cc1OC (stereo not drawn) | inconclusive [inhibitor, single point]
CCOc1ccc(CNC(=O)C(CC)n2nc(C)n3c(cc4occc43)c2=O)cc1OC (stereo not drawn) | inconclusive [inhibitor, single point]
CCC1CN(C(=O)N2CCC(C(=O)NCc3cc(OC)c(OC)c(OC)c3)CC2)c2ccccc2O1 (stereo not drawn) | inconclusive [inhibitor, partial curve]
N#Cc1c(N2CCN(c3ccc(F)cc3)CC2)nc(N)c2c(N)nc3c(c12)CC(=O)N3C1CC1 | inconclusive [inhibitor, full curve]
O=S(=O)(c1ccc2nc(Nc3ccccc3)ccc2c1)N1CCCCC1 | inactive
CCOc1ccc(NC(=O)COC(=O)c2c(OC)cccc2OC)cc1 | inconclusive [inhibitor, single point]
O=C1COc2ccc(-c3csc(=Nc4ccc(OC(F)F)cc4)n3CC3CCCO3)cc2N1 (stereo not drawn) | inconclusive [inhibitor, full curve]
CN1CCCC1CCNc1ccc2sc3ccccc3c(=O)c2c1 (stereo not drawn) | inconclusive [inhibitor, single point]
Cc1nn(-c2ccccc2)c(Cl)c1CN(C(=O)CCl)c1cccc2ccccc12 | inconclusive [inhibitor, single point]
COc1ccc(C(C)(C)C)cc1NC(=O)C1=CC=CN2CCS(=O)(=O)N=C12 | inactive
COc1ccccc1-c1nnc(SCC(=O)NCc2c(C)c(Cl)cc(C(C)C)c2O)o1 | inconclusive [inhibitor, partial curve]
O=C(C(c1ccccc1)c1ccccc1)N1CCN(Cc2ccc(Br)cc2)CC1 | inconclusive [inhibitor, single point]
COc1ccc(N2CCc3c(C)nc4c(OC)cccc4c32)cc1 | inconclusive [inhibitor, full curve]
CCOC(=O)C1CCN(C(=O)C(C)Sc2nnc3ccccn23)CC1 (stereo not drawn) | inconclusive [inhibitor, single point]
O=C(Nc1ccc2c(c1)OCCO2)C1CCCN(S(=O)(=O)Cc2ccccc2)C1 (stereo not drawn) | inconclusive [inhibitor, full curve]
Cc1ccc(-c2nnc(Oc3cccc(C)c3)c3ccccc23)cc1 | inactive
